In the supplement of paper PMC11417369:
This is one part of the list.

Each sequence was assayed on PfHDP1 homeodomain (GST-tagged) (assay: gcPBM binding intensity (ln(normalized median fluorescence intensity)); higher = stronger DNA binding).
Summary of the method: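 Binding intensity is defined as the maximum Masliner-normalised natural-log median intensity across replicate spots for either probe orientation. It was measured on an Agilent 4 × 180k array of primer-extended double-stranded 36-bp intergenic genomic probes and negative controls, to which GST-tagged P. falciparum DNA-binding domains made in E. coli were applied for 1 h in 1× PBS with 1% milk, 0.2 mg/ml BSA, 0.5% salmon testes DNA and 0.03% Triton X-100. Detection was by Alexa488 anti-GST antibody and scanning at 488 nm.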

| Sequence | gcPBM binding intensity (ln) |
| --- | --- |
| ACGTTTTATTTTTATTGTACTCACATTGAAATGAAT [XGTACX_site6094] | 6.93 |
| TTTGTAATAACATATGCATGTTCAAAAAATAAAATA [TGCATGCA_site817] | 6.51 |
| ATTTTTTTTGTAAAAGTGCATATATATATATATATA | 9.84 |
| ATATATTTATACATTTGTACATATACATATTTCTGA [XGTACX_site3982] | 6.5 |
| AAAATTGTGCTTTCACGGACACAAGATCGAAATAGA [XGTACX_site4068] | 6.61 |
| GAAACGTTTTTGAGTAGTACACACACAATAAGGATG [XGTACX_site6809] | 7.19 |
| ATATAAATATAAACATGTACATATATATATATATAT [XGTACX_site2824] | 9.44 |
| TAATAATAATATAAAATACACACCTATTATTTTTAC [CACACA_site4003] | 6.47 |
| CATGATATATAAATATGTACATATATATATATATAT [XGTACX_site1760] | 9.48 |
| CAATATTATTATATTTGTACACATGCGTATTTTTTA [XGTACX_site4154] | 6.57 |
| ATATTATGTGATTGTGCACACTGGAGATTTTTTTTA [CACACA_site1453] | 11.2 |
| CCCGTAAATACAAAAAGTACAAAAGTTCATCTTATA [XGTACX_site1154] | 6.35 |
| TTAATATTGTATCCAAGTACACAAATTATTATATTT [XGTACX_site8067] | 6.31 |
| AAAAATATAAACTGCACACACAAAAAAAAAAGAGAA [CACACA_site1367] | 7.57 |
| ACATTAATATAAAGCACACATATATATAATATATAT [CACACA_site508] | 6.64 |
| ATTGATTTTTAATATACACACATAAGTACCACAAAA [CACACA_site339] | 6.91 |
| TATAACATATTTATATATGACATTATCTATTCATTT [CACACA_negctrl_site864] | 6.16 |
| ATATATATATATGTGTGTACTTATTTATTTATTTGT [XGTACX_site549] | 9.15 |
| TAATAAATCCTATATAGTACATATATGCAAGTATGT [XGTACX_site3955] | 6.97 |
| TTTTCTTAATATTTATGTATATATATAATATGATAT [TGCATGCA_negctrl_site572] | 6.32 |
| ATGTAACACATATTTGGTACAGATAGATAAAAGTAT [XGTACX_site8291] | 6.9 |
| TTTTTAAATAACCTATATATTATTATGAAACATAAA [CACACA_negctrl_site916] | 6 |

| Sequence | gcPBM binding intensity (ln) |
| --- | --- |
| GTATAATATATTTATAGTACATAATTATTTATAAAT [XGTACX_site1826] | 6.31 |
| TATATATATATATTCACACATAAAAATAAAATAAAA [CACACA_site4774] | 8.8 |
| AATTTAAATTCATCACGTACATACGTGAATATACAC [XGTACX_site5220] | 6.56 |
| TTATTTGTTTAATATGCATGCTAAAAGGGTTGATGT [TGCATGCA_site581] | 6.94 |
| ATTTTACATATTTGCACACATATATTTATATACATA [CACACA_site854] | 10.6 |
| AATATAAAAATGCACACACACAAAAAAAAAAAAAAA [CACACA_site6546] | 9.21 |
| GAGTAAAACAAATATACACACCATAAAGTTATAAAA [CACACA_site5008] | 6.42 |
| TTAAAATAAAGAGCAGTGCGCATATTTTGTTATTAT [GTGCAC_site9753] | 7.08 |
| ATAAAAAAATATGTAAACATATATATGTATTTATGT [CACACA_negctrl_site1517] | 6.35 |
| TTTTTTTTTAAAGAAAATAAAAATATGTACTTGACA [CACACA_negctrl_site1113] | 6.05 |
| AAACAATTTTTATTTTGTACATAACAATATATTTAT [XGTACX_site1375] | 6.31 |
| TTTTTATATTTTATTAGTACTTATTATATATATAAT [XGTACX_site4900] | 6.51 |
| CATAAAAATGTATCAAGTACACATTTATTTATCCAT [XGTACX_site152] | 6.06 |
| TACAGATAAAAGTACACACACACACCGATATATATA [CACACA_site4675] | 6.96 |
| GTATAACACAAGTGAAGTACAGGGGTAAACATTTAT [XGTACX_site3203] | 6.56 |
| AATCCATTCTATTTTTTACACACGTATGTAAATATT [CACACA_site8860] | 6.75 |
| TGAGAAAGCGCATATTGTACTATATATTTTAACCAC [XGTACX_site4098] | 6.76 |
| GAAAATAATGTTACATGTACGAATATGTAACTATTG [XGTACX_site6833] | 6.16 |
| AATATATATGGACATGCATGGACATAATAATCTATT [TGCATGCA_site838] | 6.47 |
| AAATACATATATACATGTACATAAATATATATATAT [XGTACX_site5367] | 8.77 |
| ATAGATATACATATCACACATATATATATATATATA [CACACA_site4985] | 9.4 |
| TAAGGTAGTTCTGTATCACACACATATATATATATA [CACACA_site8693] | 9.16 |
